# Test results published in PubChem BioAssay AID1347165 (National Center for Advancing Translational Sciences (NCATS), 2019).
# The whole screen tested about 220,000 compounds, of which about 5,700 (2.6%) were called active. This list was built around the results that the source calls inconclusive (neither active nor inactive); the mix of calls is not that of the screen. Calls come from the whole dose curve; as a rule, active = well fitted inhibition curve with a large enough effect; inconclusive = small, poorly fitted or top-dose-only effect; inactive = no such curve, though single readings can be large or run the other way. Where the call is inconclusive, the potency comes from a doubtful curve fit.
# Target: Lysine-specific demethylase 5B (Homo sapiens) (UniProt Q9UGL1)
# Sequence of UniProt Q9UGL1 (Q9UGL1 whole entry, looked up): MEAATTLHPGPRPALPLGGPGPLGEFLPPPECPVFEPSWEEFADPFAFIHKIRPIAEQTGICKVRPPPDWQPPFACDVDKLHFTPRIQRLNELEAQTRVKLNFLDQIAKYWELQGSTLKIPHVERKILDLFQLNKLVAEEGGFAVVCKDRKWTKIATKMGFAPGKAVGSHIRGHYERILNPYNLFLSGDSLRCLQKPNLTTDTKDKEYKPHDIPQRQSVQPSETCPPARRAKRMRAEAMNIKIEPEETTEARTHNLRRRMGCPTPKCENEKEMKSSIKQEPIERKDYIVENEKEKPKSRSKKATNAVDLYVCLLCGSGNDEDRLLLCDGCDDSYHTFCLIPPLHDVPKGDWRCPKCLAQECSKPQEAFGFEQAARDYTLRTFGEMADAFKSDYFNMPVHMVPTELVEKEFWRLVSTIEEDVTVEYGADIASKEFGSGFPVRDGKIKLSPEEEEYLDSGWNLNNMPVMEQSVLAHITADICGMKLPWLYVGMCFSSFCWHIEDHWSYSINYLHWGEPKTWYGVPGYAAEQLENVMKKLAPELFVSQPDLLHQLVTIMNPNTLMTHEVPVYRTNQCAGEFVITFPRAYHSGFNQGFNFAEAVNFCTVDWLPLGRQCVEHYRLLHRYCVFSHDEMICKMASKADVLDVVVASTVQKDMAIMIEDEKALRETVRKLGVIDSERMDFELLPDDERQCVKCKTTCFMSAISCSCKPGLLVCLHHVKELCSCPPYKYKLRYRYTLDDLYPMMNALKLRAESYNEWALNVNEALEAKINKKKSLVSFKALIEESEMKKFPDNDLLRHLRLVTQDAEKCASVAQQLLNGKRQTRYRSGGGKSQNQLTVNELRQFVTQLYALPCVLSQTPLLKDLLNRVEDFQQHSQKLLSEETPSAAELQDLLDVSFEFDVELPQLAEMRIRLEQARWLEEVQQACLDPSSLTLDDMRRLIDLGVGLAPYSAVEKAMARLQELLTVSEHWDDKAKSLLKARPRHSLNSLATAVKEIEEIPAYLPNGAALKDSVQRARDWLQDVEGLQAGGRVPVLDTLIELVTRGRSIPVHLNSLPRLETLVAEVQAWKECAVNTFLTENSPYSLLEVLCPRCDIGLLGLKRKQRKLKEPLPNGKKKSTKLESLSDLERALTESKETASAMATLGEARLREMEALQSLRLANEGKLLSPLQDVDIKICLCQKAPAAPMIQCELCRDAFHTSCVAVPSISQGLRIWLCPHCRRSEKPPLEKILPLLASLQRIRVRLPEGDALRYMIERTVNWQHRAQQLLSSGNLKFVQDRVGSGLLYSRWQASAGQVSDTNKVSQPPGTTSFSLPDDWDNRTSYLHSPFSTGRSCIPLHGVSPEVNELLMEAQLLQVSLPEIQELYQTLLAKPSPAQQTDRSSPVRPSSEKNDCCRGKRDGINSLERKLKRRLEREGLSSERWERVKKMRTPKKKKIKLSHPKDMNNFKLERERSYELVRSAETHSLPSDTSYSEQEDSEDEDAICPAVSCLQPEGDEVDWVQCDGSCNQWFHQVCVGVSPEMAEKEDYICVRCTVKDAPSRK
# Assay: Primary screen for KDM5B Histone Demethylases FDH-coupled qHTS; note: nearly all actives have a fitted effect of over 70% in size
# Settings: FDH-coupled NADH fluorescence (FDH is formaldehyde dehydrogenase); series mostly up to 57.7 µM
# How it was run: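 qHTS format, multiple compound concentrations. Buffer 50 mM HEPES pH 7.5/0.01% Tween-20; 200 nM KDM5BΔAP final; 10 min compound preincubation; substrate-mix levels 12.5 µM peptide, 25 µM α-KG, 0.25 mM NAD⁺; 30 min RT; ΔRFU.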
# Potency is the fitted concentration of half-maximal effect; tags give direction and shape of the fitted curve.
row,SMILES,Potency
1,CC(C)CC(NC(=O)C1CCC(C)CC1)C(=O)O (stereo not drawn),inactive
2,COc1cc(NC(=O)CN(C)S(=O)(=O)c2ccc3[nH]c4c(c3c2)CCCC4)cc(OC)c1OC,"inconclusive: 25.1 µM [inhibitor, partial curve, poor fit]"
3,COC(=O)c1ccc2nc(CO[C@H]3CN(Cc4ncccc4C)C[C@H]3F)[nH]c2c1,"inconclusive: 39.8 µM [inhibitor, single point]"
4,CCN(CC)c1nc(-c2cccs2)cs1,"inconclusive: 39.8 µM [inhibitor, single point]"
5,O=C1CO[C@H]2CN(C3CCC3)C[C@H]2N1c1ccccc1,"inconclusive: 25.1 µM [inhibitor, partial curve]"
6,CN1CCC2(C1)CN(Cc1ccccc1)c1ccc(C(=O)N3CCOCC3)cc12 (stereo not drawn),"inconclusive: 39.8 µM [inhibitor, partial curve, poor fit]"
7,O=C(c1ccncc1)N1CCCC(CN2CCCC2)CC1 (stereo not drawn),"inconclusive: 28.2 µM [inhibitor, partial curve, poor fit]"
8,COc1ccc(-c2cnc3[nH]cc(CC(=O)N4CCOCC4)c3c2)cn1,"inconclusive: 35.5 µM [inhibitor, partial curve, poor fit]"
9,COCCN1CCCCC(CC(=O)Nc2cc(C)c(Cl)cc2OC)C1=O (stereo not drawn),inactive
10,CN1c2cc(C(=O)Nc3cccc(Br)c3)ccc2C(=O)N2CCCCC21 (stereo not drawn),"inconclusive: 35.5 µM [inhibitor, partial curve, poor fit]"
11,O=C(C1CCN(C(=O)N2CC3CC(C2)[C@H]2CCCC(=O)N2C3)CC1)N1CCC(N2CCCCC2)CC1 (stereo partly drawn),inactive
12,O=C(c1cccc2[nH]ccc12)N1CC[C@@H]2COCCN(Cc3cccnc3)[C@@H]2C1,active: 17.8 µM
13,Cn1cnc(S(=O)(=O)NCC2Cn3cccc3CN2Cc2ccccc2)c1 (stereo not drawn),active: 28.2 µM
14,Cc1nc2ccn(Cc3cccs3)c(=O)c2cc1C(=O)N1CCN(c2ccc(F)cc2)CC1,"inconclusive: 17.8 µM [inhibitor, single point]"
15,COCc1ccc2c(c1)c(OC(C)(C)C(=O)N(C)C)nn2Cc1ccccc1,"inconclusive: 35.5 µM [inhibitor, partial curve, poor fit]"
16,COCCN1CCCCCC(O)c2cc(C(=O)N3CCN(c4ncccn4)CC3)ccc21 (stereo not drawn),"inconclusive: 25.1 µM [inhibitor, partial curve, poor fit]"
17,COc1ccc(C(=O)N2[C@@H]3CC[C@H]2CC(NC(=O)c2ccncc2)C3)cc1F (stereo partly drawn),inactive
18,O=C1CC(c2ccccc2)N(Cc2ccncc2)CCCN(C(=O)C2CCOCC2)CCN1 (stereo not drawn),"inconclusive: 20 µM [inhibitor, partial curve, poor fit]"
